Read counts are not given, so values of variants with three or more changes are uncertain.

Sequences and labels used below:
B1: LINE1-mini (parent)
chain: GGCAGAGCUCAACACAGCGUGGCAAAGUGGCUGUGGCUAGACUGCC

Variants of B1 are the subject of this series. Nature of the series: self-cleavage, relative activity (ratio to wild type); higher = more cleavage; in vitro, sequencing; the parent is a self-cleaving ribozyme.
As to A12U G19C G22C G33A C45A, the self-cleavage came out at 0.

Take A12U U34C A39U: the self-cleavage came to 0.09. The value for C13A A16G G30U was 0.02. The result for A12G G29U C31A C37G G40C reads 0.01. The result for C13G C18A G33U reads 0.09.

On to A12G G30U U38C, for which the self-cleavage was 0.03. The value for C13G A14U C31U A39C was 0.04. The result for C13A A24C A26U G36A reads 0.09; that for A12U C31U G33U U43A, 0; that for A12U G19C G35U, 0.04. The value for A12U G19C U28A was 0.05; that for A12U G17A G40A was 0.02. Regarding C13A G27U G35C, the self-cleavage was found to be 0.05.

As to C13A C15U G33C, the self-cleavage was found to be 0.03. Take C13A G27A G33A A39U: the self-cleavage is 0.1. The value for C13A C18G G19A G29U C31U C37A was 0.03; that for A12U C15U G19C was 0.44.

Consider C13G G21U G29U A41U, for which the self-cleavage is 0.12. The value for A12U C31A U32A G33C C46A was 0.04; that for C13A U34A C37G was 0.04; that for C13A G29U G36A C42A was 0.14.

Turning to A12U U20G G22U A25U, the self-cleavage came out at 0.08.

As for A12U G27U G35A, the self-cleavage turned out to be 0.19. The value for C13A A14C A16G G44A was 0.06.

On to A12U G17U A26U U28C, for which the self-cleavage amounted to 0.06. As to A12G G17C C18U C23A, the self-cleavage came out at 0.01.

Turning to A12G U20G G21A A39C, the self-cleavage worked out at 0.03.

Take C13A A26U C37A: the self-cleavage is 0.02. The value for C13A A14U G30U was 0.06; that for C13G G17A G35A G40C was 0.21; that for A12U A16U U20G U32C G36A was 0.01. Consider C13A U20G G21C A24U U34A, for which the self-cleavage amounted to 0.04. The value for C13G C15G A25G G27C U28G was 0.01.

For the variant A12U U34G U38G, the self-cleavage is 0. The value for A12U G19A G30A C31A was 0.09; that for A12G G30A G35C C42G was 0.02.

For A12G G21C G35U, the self-cleavage was 0.01. The result for A12U G22U U28G C31A U34C A41U G44U reads 0.03.

As to C13A A24C G30U C42G C45G, the self-cleavage is 0.04.

In the case of A12U G27U G30C, the self-cleavage came to 0.19. The value for A12G G19U U20C G40A G44C was 0.01; that for C13A A24G U28C U34A was 0.06. C13G G27U U28G: the self-cleavage was 0.09.

For A12G G19U G22A C31U C37U, the self-cleavage was 0.01. The result for A12U G17A U38G reads 0.02; that for C13A G27A G40A, 0.06; that for C13A C15U A16G U34G C37A, 0.06. For the variant C13A A26U U34A, the self-cleavage is 0.03. The result for A12G G17A G22U G44A reads 0.02. Take C13A U20G A24G G40A: the self-cleavage came out at 0.08. The value for A12U C13A A25U was 0.08. The value for C13G A14G G44A was 0.06. The value for C13A G27C G44C was 0.09; that for C13A C18G G27U was 0.26; that for C13G A14C A25U U32G G36U was 0.02. Consider C13G C18U A25C G30U, for which the self-cleavage was determined as 0.02. The result for C13A C15U G27A G33C reads 0.07; that for C13G A24C A41C, 0.08; that for C13A G29U C31A U38G, 0.19. The value for C13G G21C C37U A39C was 0.07; that for C13A C18A A25U C42A was 0.02. Regarding A12U G17A G22C A24U G29C C31A, the self-cleavage was determined as 0.02. The value for C13A A25U C46U was 0.1; that for C13G A14U G22C A24U C31U G33C was 0.02. The value for A12U C18U U28A G33U A39U was 0.08. The value for C13G G29C C31U U38G A41C was 0.02; that for C13A C15U C23U A39C was 0.12. C13A C23U G27U G36A A39U: the self-cleavage was determined as 0.03. The result for A12G G29C G36A A41G reads 0.02; that for C13A A14C A24C C42U, 0.14.

For A12U G17U U20G C23U G29U, the self-cleavage came to 0.02. The value for C13A A14U A24C G44U was 0.46. The result for C13G C15A G17C G19A reads 0.07; that for A12U C31A U34G, 0. As to A12U C31A U34C, the self-cleavage is 0.03. The result for A12G G17U C18U C23G A24G G36C reads 0.02; that for C13A C15A G22C A26G, 0.01. The result for A12U U20G A24U G35A reads 0.11; that for A12G G22A A24G G27U, 0.02; that for A12U A14G C31A, 0. The result for A12G U20G G44U reads 0.01.

For C13G A14G G17U C23A G30U, the self-cleavage is 0.02. The value for A12G C37A A39U U43A was 0.04; that for A12U C13U G35A was 0.39. The value for C13G G29A U32A was 0.05. For the variant A12U C31A C45U, the self-cleavage was 0.11. The value for C13A G17C G29U U43A was 0.23; that for A12U C13G A24C G27C was 0.01. Regarding C13A A14U U34C A41C, the self-cleavage came out at 0.03.

On to A12U A16U C18G G36C, for which the self-cleavage came to 0.01. The result for C13A U20G C42G reads 0.03. The result for A12U G19C G21C G30U C31G U32C A39G C46U reads 0.01; that for A12U A14C G17A, 0.01; that for A12U C13G A41U C42U, 0.05. On to A12U A25G G40U, for which the self-cleavage was determined as 0.02. On to C13G G35A C45A, for which the self-cleavage turned out to be 0.02. The value for C13G C31U G33A was 0.09. The value for C13G G29U C45U was 0.3; that for C13A C18G G36C was 0.13; that for A12G G19C U38G was 0.05.

In the case of A12U A16G G21U, the self-cleavage was 0.12. Consider C13G A16C C18A G29A G35A, for which the self-cleavage was 0.16. The value for A12U C15U U20G G22C G29U G30U C37G was 0; that for C13G C18A U20G G29U C45U was 0.01; that for A12G G22A C45A was 0. The result for C13G G21C G33U G35A reads 0.01; that for C13G G27C U28C, 0.12.

With C13G C15U C23U, the self-cleavage amounted to 0.03. Consider C13A C15U C18G A24U, for which the self-cleavage came to 0.04. The value for A12U C13U G17U G21U C46G was 0.03.

As for C13G G21U C23A, the self-cleavage turned out to be 0.14.

Turning to A12G U32A G44C, the self-cleavage came to 0.02. The result for C13A C23G G30U U34G A39G reads 0.03. As to A12U G17A A26C G35C, the self-cleavage was 0.16. C13A C15A G19U G21U G22A: the self-cleavage stood at 0.06. Turning to A12U A26C C31G A39U, the self-cleavage stood at 0.03. The result for A12U A25G G29C reads 0.03; that for C13A G22C C23G A26G G30A C31U U34A G44U, 0. The value for A12U U20A C37G was 0.02; that for C13G C37A U38G was 0.01. For C13G G17U A39C, the self-cleavage came to 0.08. The result for C13A C23A G27A reads 0.12; that for C13A U20C U28C C31A A41G C45G, 0.02; that for A12G U34A G44A, 0.02. The value for A12U A14G A25U U28G G35A was 0.02. The value for A12U G33U C46A was 0.01; that for A12U C18G U20C U32C was 0.04. For the variant C13G A25U U32G, the self-cleavage stood at 0.02. On to C13A G27A U32G C42A G44C, for which the self-cleavage worked out at 0.01. A12U G27A U32G U43G: the self-cleavage was determined as 0. The result for A12U C15G C45U reads 0. The result for C13G A16G U20A A39G reads 0; that for A12G U32G A39U, 0.16. Regarding A12G G30C G33A, the self-cleavage was 0.08. The value for C13A A26U C46G was 0.14; that for C13A U34C U43A C45A was 0.01. The value for C13G A14G C15U G17C G33A was 0.02. A12G G36U C42G C45A: the self-cleavage is 0.08.

Turning to A12U U43G G44A, the self-cleavage stood at 0.12.

For the variant A12U A14C C18A G33U, the self-cleavage is 0.12. Take C13G G17A C37U: the self-cleavage was found to be 0.11. Regarding A12G U34A C46A, the self-cleavage was 0.02. For the variant C13G C18U C23A, the self-cleavage turned out to be 0.28. As to A12U C23G A39G G44A C46U, the self-cleavage came to 0.02. A12G G19C U28G G29A G40A C45A: the self-cleavage came to 0.02. Regarding A12G G19U C45U, the self-cleavage came out at 0. The value for C13A A16U C23A G40U was 0.09; that for A12G G30C A39C was 0.01. The result for C13A C15A A25G reads 0.04. The result for A12U A14G C23U reads 0.02; that for C13A A25C C31U, 0.12; that for C13A G21C G35U C45U, 2.23. For A12U C18G U20A U28A C45A, the self-cleavage was 0.08. The value for C13G G21C C37G was 0.01; that for C13A C15G G27U was 0.03; that for A12U C23A G40A was 0.08. C13A A26U G44A: the self-cleavage is 0.23. The value for C13A G19C A39U was 0.61; that for C13A G33A U38A was 0.02; that for C13A U28C A41U was 0.2. As for C13A G19A G33U G35U, the self-cleavage is 0.05. With C13A G17U C18G G27U G35C C37G U38A, the self-cleavage came to 0.2. The value for C13A G22A U43C was 0; that for A12U G29A A39U C45U was 0.49; that for C13G G17U A41C was 0.17. The value for C13G A16G G29U was 0.02; that for C13A G17A G30A U32C C45G was 0.01.

The values are drawn from the RNAGym collection of RNA variant scans (doi:10.7554/elife.90254).
